# The campaign covered roughly 310,000 compounds. About 2,200 (0.71%) showed an effect of 50% or more. The effect is printed as a negative number. The list shows a part of the results.
# Biological target: human ether-à-go-go-related gene (hERG) potassium channel (human, UniProt Q12809)
# Test: primary screen, population patch clamp on CHO cells stably expressing hERG
# Sequence of human ether-à-go-go-related gene (hERG) potassium channel (Q12809 whole entry, looked up): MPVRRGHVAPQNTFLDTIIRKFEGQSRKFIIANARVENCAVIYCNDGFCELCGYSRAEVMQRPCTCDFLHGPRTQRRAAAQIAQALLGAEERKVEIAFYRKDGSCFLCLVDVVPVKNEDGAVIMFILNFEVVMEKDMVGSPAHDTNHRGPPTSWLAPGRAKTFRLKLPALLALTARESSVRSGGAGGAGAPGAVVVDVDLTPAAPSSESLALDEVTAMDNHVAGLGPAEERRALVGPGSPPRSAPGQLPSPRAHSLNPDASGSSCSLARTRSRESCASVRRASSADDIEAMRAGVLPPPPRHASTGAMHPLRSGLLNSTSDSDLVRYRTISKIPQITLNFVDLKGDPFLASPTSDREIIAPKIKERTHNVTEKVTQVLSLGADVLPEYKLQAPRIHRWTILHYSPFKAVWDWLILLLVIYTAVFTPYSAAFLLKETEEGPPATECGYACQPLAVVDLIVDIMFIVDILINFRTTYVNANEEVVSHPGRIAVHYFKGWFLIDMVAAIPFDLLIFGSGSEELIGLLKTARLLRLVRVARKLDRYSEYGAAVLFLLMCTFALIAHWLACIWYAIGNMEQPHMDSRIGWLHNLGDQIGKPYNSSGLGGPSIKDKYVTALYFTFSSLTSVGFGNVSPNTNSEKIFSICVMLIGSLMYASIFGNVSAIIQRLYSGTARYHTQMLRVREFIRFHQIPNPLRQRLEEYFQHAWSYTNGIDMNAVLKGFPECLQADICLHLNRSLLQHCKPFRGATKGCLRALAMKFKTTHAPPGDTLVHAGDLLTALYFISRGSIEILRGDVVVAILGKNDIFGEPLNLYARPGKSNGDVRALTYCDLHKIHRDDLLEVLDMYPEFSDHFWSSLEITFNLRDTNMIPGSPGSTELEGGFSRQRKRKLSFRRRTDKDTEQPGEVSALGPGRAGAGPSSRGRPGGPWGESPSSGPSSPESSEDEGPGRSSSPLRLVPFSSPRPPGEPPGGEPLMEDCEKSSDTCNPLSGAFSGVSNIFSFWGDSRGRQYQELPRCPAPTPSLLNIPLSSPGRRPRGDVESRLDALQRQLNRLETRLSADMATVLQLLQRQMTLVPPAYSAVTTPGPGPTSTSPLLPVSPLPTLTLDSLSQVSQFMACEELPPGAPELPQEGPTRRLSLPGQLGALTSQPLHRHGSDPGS
row,Structure (SMILES),"hERG current change (%, negative = inhibition) at 1uM [%]"
1,CCN(CC)c1ccc(C2C(C(=O)OCCOC)=C(C)NC3=C2C(=O)CCC3)cc1 (stereo not drawn),11
2,O=C(NC(=S)N1CCN(c2ccc(C(F)(F)F)cc2[N+](=O)[O-])CC1)c1cccs1,-11.2
3,COc1ccc([C@H]2CC(=O)C=C(c3cccc(NC(C)=O)c3)C2)cc1,-6.64
4,O=C(CNC(=O)c1ccc(F)cc1)N/N=C/c1cc(Br)ccc1OC(=O)/C=C/c1ccco1,12.1
5,CC(C)(C)C(=O)Nc1ccc(NC(=O)c2ccco2)nc1,12.6
6,Cc1c(Br)cc(C(=O)O)c(C)c1C,18
7,Cc1cc(C)cc(NC(=O)C[n+]2ccccc2)c1.[Cl-],6.64
8,CCOC(=O)c1nnn(-c2nonc2N)c1CNc1ccc(C)c(Br)c1,8.22
9,CCS(=O)(=O)Nc1ccc(C2=NN(C(=O)c3ccco3)C(c3ccc(C)cc3)C2)cc1 (stereo not drawn),2.48
10,CCCc1ccc(OCCNC(=O)C2CCCCC2)cc1,1.41
11,CCC(C)[C@H](NC(=O)NCc1cccs1)C(=O)O (stereo partly drawn),14.8
12,CC1=C(C(=O)OCc2ccccc2)C(c2ccc([N+](=O)[O-])cc2)NC(=O)N1 (stereo not drawn),9.92
13,O=C(Nc1ccc(S(=O)(=O)N2CCCC2)cc1)c1ccc([N+](=O)[O-])cc1,10.1
14,Cc1cc(N2CCCC2)ccc1C=C(C#N)C#N,1.28
15,COc1ccc(N=C(C)c2sc3ccccc3c2O)cc1,3.02
16,COCCNC(=O)c1cnn2c1NC(c1ccco1)CC2C(F)(F)F (stereo not drawn),1.98
17,CC1CCCCN1CCNS(=O)(=O)c1ccc2c(c1)oc(=O)n2C (stereo not drawn),16.3
18,CCNC(=O)CC1C(=O)N(c2ccc(C)cc2)C(=O)N1CCc1ccc(OC)c(OC)c1 (stereo not drawn),0.691
19,Oc1ccc(/C=N/Nc2ccccc2)cc1,6.97
20,COc1ccc(CNC(=O)CSc2n[nH]c(N)n2)cc1,14.9
21,CCOc1ccccc1Nc1nc(N)nc(CN(C)C2CCCCC2)n1,-54.3
22,Cc1cc(C(F)(F)F)n2[nH]c(=O)c(N=Nc3ccccc3)c2n1,18.6
23,C[C@@H]1CC[C@]2(C(=O)O)CC[C@]3(C)C(=CCC4[C@]56CC[C@@](O)(OC5)C(C)(C)C6CC[C@]43C)C2[C@H]1C (stereo partly drawn),8.88
24,CCOC(=O)NC(=O)COC(=O)CCCSc1nc2ccccc2s1,-0.161

# — PMC4336329 (PLoS ONE, 2015)
